From PubChem BioAssay AID330 (DTP/NCI, 2004)
Toxic doses and inconclusive results are not listed. Certain results were filed several times, with different values. This is not the full list of results. There may be further records. Values given together differ for a reason that is not stated; they may come from other doses, times, organisms or constructs than stated. Additions like (4×) count equal records among those shown.

Tested on: P388 leukemia ip, CD2F1 mice, survival T/C
Test: NCI In Vivo Anticancer Drug Screen. Data for tumor model P388 Leukemia (intraperitoneal) in CD2F1 (CDF1) mice
Conditions: endpoint: median survival time, higher = longer survival

NC(CC(=O)CCl)C(=O)O (centres undefined)
T/C (dose: 25.0 mg/kg/injection, schedule: Q04DX003 (ip), vehicle: saline): 116 % of control and 160 % of control (2×)

O=S(=O)(Nc1ccc2ccccc2c1)N1CCCCC1
T/C (dose: 50.0 mg/kg/injection, schedule: Q01DX009 (ip), vehicle: Klucel (hydroxypropylcellulose) (HPC)): 93 % of control, 101 % of control, 160 % of control | T/C (dose: 100.0 mg/kg/injection, schedule: Q01DX009 (ip), vehicle: Klucel (hydroxypropylcellulose) (HPC)): 101 % of control (2×) and 160 % of control | T/C (dose: 200.0 mg/kg/injection, schedule: Q01DX009 (ip), vehicle: Klucel (hydroxypropylcellulose) (HPC)): 99 % of control, 105 % of control, 173 % of control
